Assay [1] deals with FLAG-GLI1 (full length GLI1, plasmid pCDNA-GLI1-3xFLAG) (UniProt P08151). Description: co-IP; HEK-293T cells co-transfected, lysed 24 h later in Triton X-100 buffer; FLAG-GLI1 forms precipitated with anti-FLAG agarose beads, 2 h at 4 °C; control beads saturated with FLAG peptide; anti-MYC blot.
Assay [2] addresses FLAG-GLI1 (1-413), expressed in HEK-293T (plasmid pCDNA-GLI1(1-413)-3xFLAG) (UniProt P08151). The description is as above.
For assay [3], the target named is T1, FLAG-GLI1 (424-1106), expressed in HEK-293T (plasmid pCDNA-GLI1(424-1106)-3xFLAG) (UniProt P08151).
T1 sequence: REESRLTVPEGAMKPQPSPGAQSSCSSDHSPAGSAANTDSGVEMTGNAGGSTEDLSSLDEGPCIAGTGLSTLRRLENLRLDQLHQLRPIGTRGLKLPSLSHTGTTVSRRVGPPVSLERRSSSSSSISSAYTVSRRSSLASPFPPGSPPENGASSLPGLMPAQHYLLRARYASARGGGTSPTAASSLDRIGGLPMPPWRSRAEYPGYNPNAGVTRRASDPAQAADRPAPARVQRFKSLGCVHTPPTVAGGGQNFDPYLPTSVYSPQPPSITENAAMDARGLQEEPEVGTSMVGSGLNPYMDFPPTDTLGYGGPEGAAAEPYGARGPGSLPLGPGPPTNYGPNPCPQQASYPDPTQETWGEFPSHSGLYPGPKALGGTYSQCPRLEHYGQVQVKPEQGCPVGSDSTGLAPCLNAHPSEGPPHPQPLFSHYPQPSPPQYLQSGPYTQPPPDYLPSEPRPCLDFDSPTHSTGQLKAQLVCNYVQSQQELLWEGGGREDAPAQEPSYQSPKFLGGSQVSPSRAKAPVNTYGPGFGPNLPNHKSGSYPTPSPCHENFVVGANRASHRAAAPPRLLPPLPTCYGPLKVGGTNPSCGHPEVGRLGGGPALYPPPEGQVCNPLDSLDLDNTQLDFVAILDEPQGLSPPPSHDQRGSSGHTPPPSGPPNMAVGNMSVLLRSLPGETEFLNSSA
The description is as above.

The chains behind the UniProt entries cited, without tags or fusion partners.
UniProt P47806: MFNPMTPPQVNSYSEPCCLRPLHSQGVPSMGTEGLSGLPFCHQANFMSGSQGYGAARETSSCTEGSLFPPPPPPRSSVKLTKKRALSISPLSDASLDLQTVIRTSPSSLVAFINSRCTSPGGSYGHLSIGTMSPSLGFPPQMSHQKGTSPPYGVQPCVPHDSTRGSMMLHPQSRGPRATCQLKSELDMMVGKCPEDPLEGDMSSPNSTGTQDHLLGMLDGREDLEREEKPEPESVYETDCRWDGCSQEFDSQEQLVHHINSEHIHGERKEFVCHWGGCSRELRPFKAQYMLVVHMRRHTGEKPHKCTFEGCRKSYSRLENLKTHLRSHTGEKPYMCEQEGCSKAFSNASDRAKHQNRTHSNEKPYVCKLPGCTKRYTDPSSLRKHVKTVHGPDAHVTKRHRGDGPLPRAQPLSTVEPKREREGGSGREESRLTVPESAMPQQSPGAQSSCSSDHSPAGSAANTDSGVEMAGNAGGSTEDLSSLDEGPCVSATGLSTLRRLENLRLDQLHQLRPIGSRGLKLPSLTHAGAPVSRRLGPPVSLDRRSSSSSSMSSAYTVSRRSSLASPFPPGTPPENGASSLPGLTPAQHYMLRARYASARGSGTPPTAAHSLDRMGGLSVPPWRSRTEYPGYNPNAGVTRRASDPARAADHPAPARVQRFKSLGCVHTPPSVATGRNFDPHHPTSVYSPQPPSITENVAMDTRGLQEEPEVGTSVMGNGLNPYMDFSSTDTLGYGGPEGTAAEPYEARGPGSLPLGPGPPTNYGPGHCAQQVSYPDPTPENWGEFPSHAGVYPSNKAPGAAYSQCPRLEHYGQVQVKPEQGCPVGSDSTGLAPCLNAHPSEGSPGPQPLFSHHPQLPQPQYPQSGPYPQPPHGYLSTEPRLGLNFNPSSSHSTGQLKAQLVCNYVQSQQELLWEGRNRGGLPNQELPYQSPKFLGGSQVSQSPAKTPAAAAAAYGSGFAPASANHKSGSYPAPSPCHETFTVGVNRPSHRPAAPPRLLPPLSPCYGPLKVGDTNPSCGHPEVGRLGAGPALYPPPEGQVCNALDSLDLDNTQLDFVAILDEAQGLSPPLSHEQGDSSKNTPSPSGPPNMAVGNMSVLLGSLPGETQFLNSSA
UniProt Q9HCE7: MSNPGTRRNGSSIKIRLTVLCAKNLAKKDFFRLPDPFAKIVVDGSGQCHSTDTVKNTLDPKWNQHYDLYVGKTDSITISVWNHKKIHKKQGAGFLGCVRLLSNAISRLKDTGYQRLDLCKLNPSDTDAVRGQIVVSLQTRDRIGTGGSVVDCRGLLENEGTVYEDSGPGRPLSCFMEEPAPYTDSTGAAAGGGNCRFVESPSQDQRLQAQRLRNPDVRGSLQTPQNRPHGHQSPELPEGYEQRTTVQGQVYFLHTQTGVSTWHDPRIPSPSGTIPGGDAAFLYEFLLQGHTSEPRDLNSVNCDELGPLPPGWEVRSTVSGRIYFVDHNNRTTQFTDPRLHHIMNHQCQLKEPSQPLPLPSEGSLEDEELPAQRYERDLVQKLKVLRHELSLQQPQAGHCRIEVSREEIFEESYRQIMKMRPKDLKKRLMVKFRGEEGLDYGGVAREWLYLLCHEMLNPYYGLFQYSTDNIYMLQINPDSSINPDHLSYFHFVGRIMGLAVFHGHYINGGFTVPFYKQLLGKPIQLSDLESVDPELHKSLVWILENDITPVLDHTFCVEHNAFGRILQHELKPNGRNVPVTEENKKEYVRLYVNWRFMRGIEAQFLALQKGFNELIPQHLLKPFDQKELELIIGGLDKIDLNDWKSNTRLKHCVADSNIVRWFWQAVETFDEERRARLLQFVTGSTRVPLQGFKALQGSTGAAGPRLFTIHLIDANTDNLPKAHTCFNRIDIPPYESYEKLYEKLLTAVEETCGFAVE
UniProt Q9HAU4: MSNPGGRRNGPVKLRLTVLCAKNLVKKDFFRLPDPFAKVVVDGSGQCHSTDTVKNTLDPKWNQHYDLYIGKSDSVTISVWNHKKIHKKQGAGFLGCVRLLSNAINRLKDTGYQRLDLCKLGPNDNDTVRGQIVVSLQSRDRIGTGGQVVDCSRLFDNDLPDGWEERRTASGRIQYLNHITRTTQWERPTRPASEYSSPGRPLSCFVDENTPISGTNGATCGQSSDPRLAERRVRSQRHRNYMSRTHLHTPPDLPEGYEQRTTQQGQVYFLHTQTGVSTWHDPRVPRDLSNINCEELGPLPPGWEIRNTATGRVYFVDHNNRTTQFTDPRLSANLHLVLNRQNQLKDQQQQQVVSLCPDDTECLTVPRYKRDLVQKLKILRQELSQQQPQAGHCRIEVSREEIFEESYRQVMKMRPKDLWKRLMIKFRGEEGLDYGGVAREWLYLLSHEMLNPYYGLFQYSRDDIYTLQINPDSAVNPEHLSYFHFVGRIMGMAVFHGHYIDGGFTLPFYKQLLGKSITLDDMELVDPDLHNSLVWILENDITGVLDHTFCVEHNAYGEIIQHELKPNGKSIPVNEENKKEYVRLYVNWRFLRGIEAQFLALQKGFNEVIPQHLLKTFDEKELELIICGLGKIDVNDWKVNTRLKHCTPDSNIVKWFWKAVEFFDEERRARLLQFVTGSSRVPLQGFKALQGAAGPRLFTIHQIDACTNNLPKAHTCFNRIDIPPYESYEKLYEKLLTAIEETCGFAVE
UniProt Q9CUN6: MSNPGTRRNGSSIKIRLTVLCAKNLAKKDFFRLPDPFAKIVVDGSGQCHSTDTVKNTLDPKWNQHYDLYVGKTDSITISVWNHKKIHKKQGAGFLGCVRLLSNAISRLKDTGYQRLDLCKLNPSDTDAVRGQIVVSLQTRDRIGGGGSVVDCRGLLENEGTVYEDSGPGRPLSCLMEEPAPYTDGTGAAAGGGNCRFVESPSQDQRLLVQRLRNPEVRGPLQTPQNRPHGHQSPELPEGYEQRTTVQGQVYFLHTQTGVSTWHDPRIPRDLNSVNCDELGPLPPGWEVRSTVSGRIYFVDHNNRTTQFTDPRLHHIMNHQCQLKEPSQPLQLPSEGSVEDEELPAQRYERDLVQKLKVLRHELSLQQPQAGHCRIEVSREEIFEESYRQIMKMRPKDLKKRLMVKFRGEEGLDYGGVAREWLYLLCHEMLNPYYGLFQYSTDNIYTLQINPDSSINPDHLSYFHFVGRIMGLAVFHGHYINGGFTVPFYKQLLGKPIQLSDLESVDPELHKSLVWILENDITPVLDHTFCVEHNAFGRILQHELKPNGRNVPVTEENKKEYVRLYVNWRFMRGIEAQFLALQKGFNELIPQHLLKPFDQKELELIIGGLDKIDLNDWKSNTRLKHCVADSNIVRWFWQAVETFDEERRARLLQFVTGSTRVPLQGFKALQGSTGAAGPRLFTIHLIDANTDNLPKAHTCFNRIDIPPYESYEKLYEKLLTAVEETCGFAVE

Assay [4] deals with FLAG-GLI1 (1-413), in vitro translated (UniProt P08151). Description: co-IP; in vitro translated proteins (rabbit reticulocyte lysate) incubated together 2 h at 4 °C, precipitated with anti-FLAG agarose beads; control beads saturated with FLAG peptide; anti-MYC blot.
The target in assay [5] is T2, FLAG-GLI1 (424-1106), in vitro translated (UniProt P08151).
T2 sequence: T1 sequence
The assay is described as above.

Assay [6] concerns the target endogenous GLI1 (NIH-3T3 cells) (mouse (endogenous in NIH-3T3)) (UniProt P47806). The assay is described as follows: proximity ligation; NIH-3T3 cells, endogenous proteins, fixed in 4% paraformaldehyde, permeabilised; control without primary antibody.
The target of assay [7] is FLAG-GLI1 (full length GLI1, plasmid pCDNA-GLI1-3xFLAG) (UniProt P08151). The assay is described as follows: proximity ligation; HEK-293T cells transfected with FLAG-GLI1, fixed in 4% paraformaldehyde, permeabilised; primary antibodies anti-FLAG, anti-GLI1, anti-SMURF1 or anti-SMURF2; control without primary antibody.
The target in assay [8] is endogenous GLI1 (medulloblastoma cells) (human (endogenous in DAOY, ONS-76)) (UniProt P08151). The assay is described as follows: co-IP; endogenous proteins in DAOY and ONS-76 lysates; precipitated with anti-GLI1 (H-300) antibody and Protein A agarose; control IgG; anti-SMURF1 and anti-SMURF2 blots.

These are yes or no findings as the source states them, for the method shown. In cells and extracts the contact can be indirect. Some entries that bind do so weakly or less than the wild type. For part of these data: Sequences can lack the tags named with a protein.

The results in this text go back to article PMC11655642.

On to “MYC-SMURF1 (plasmid pRK1-MYC-SMURF1) (from UniProt Q9HCE7 1-757) (enzyme)”, for which the binding entry is given as “binds” in assay [1], “no binding” in assay [2] and “binds” in assay [3].

Consider “MYC-SMURF1, in vitro translated (plasmid pRK1-MYC-SMURF1) (from UniProt Q9HCE7 1-757) (enzyme)”, for which the binding result in assay [4] was “no binding”; in assay [5], “binds”.

Regarding “MYC-SMURF2 (plasmid pRK1-MYC-SMURF2) (from UniProt Q9HAU4 1-748) (enzyme)”, the values for the binding result in assay [1], in assay [2] and in assay [3] were “binds”, “no binding” and “binds”, respectively.

As for “MYC-SMURF2, in vitro translated (plasmid pRK1-MYC-SMURF2) (from UniProt Q9HAU4 1-748) (enzyme)”, the binding entry in assay [4] was “no binding”; in assay [5], “binds”.

Take “endogenous SMURF1 (NIH-3T3 cells) (from UniProt Q9CUN6 1-731) (enzyme)”: in assay [6], the binding entry was “binds”.

For the substance “endogenous SMURF1 (human cells) (from UniProt Q9HCE7 1-757) (enzyme)”, the binding entry in assay [7] and in assay [8] was “binds” throughout.

In the case of “endogenous SMURF2 (human cells) (from UniProt Q9HAU4 1-748) (enzyme)”, the binding result in assay [7] and in assay [8] was “binds” each time.
